The campaign covered roughly 220,000 compounds. About 16,000 (7.3%) were called active. Inconclusive results, whose numbers are uncertain, are shown with a selection of clear calls. Calls follow the shape of the dose curve; as a rule, active = well fitted inhibition curve with a large enough effect (not every such curve was filed as active); inconclusive = small, poorly fitted or top-dose-only effect, or another doubt; inactive = no such curve, though single readings can be large or run the other way. No potency is given beside an inconclusive call; the fits are too rough.
Each molecule was assayed against Aldehyde dehydrogenase 1A1 (Homo sapiens) (UniProt P00352) (assay: qHTS Assay for Inhibitors of Aldehyde Dehydrogenase 1 (ALDH1A1)). Details: Purified ALDH1A1, NADH fluorescence, propionaldehyde substrate; series mostly up to 75.3 µM; activity, negative = inhibition: at the top concentration.
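For activity, negative = inhibition in this document: plate controls were no enzyme wells and a reference inhibitor.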
Potency is read from the fitted curve at half-maximal effect; tags tell the direction and shape of the fitted curve.

Chain of UniProt P00352 (P00352 whole entry, looked up): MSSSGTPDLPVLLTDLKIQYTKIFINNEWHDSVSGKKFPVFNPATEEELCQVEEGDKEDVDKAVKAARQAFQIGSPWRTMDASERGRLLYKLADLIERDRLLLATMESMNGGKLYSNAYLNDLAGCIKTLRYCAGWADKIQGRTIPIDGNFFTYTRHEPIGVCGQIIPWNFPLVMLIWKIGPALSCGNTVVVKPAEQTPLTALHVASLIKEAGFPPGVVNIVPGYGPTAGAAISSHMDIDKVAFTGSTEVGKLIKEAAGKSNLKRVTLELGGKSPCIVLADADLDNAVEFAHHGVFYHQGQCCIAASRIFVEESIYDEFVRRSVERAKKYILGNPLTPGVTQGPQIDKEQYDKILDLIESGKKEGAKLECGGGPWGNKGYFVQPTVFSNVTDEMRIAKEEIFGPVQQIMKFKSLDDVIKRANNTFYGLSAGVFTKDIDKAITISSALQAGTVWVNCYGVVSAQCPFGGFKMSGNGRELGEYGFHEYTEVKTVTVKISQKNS

| SMILES | Potency | activity, negative = inhibition |
| --- | --- | --- |
| COc1ccc(C2=NN(CC(=O)NCc3ccco3)C(=O)CC2)cc1 | inconclusive [inhibitor, single point] | – |
| CCN(CC)S(=O)(=O)c1ccc(C(=O)N2CCN=C2SCc2cccnc2)cc1 | inconclusive [inhibitor, partial curve] | – |
| COC(=O)c1ccccc1Oc1nc(Cl)cc(OC)n1 | inconclusive [inhibitor, single point] | – |
| O=C(Cn1nnc2c(cnn2-c2ccc(F)cc2)c1=O)OC1CCCCC1 | inconclusive [inhibitor, partial curve] | – |
| O=C(COc1ccccc1)Nc1ccc2c(c1)nc1n2CCSC1 | inconclusive [inhibitor, single point] | – |
| COc1cc(/C=C2/SC(=S)N(CC(=O)NC(C)(C)C)C2=O)cc(OC)c1OC | inconclusive [inhibitor, single point] | – |
| N#Cc1ccc(C(=O)Nc2cc(S(=O)(=O)Nc3ccc(Cl)cc3)ccc2N2CCCCC2)cc1 | inconclusive [inhibitor, single point] | – |
| CC(C)(C)CN1CCNC(=O)C1CC(=O)NCCc1ccccc1C(F)(F)F (stereo unspecified) | inconclusive [inhibitor, single point] | – |
| COC(=O)c1cnn2c(C(F)(F)F)cc(-c3ccccc3)nc12 | inconclusive [inhibitor, single point] | – |
| Clc1ccc(-c2cc(-c3ccccn3)on2)c(Cl)c1 | – | inactive: 17% |
| O=C(Cn1nnc2ccccc21)c1cccc([N+](=O)[O-])c1 | inconclusive [inhibitor, single point] | – |
| N=c1c2c(-c3ccccc3)c(-c3ccccc3)oc2ncn1CCCN1CCOCC1 | inconclusive [inhibitor, partial curve] | – |
| O=C(O)c1cc(N=Nc2c(O)ccc3ccccc23)cc(C(=O)O)c1 | inconclusive [inhibitor, single point] | – |
| CC(=O)C1=C(C)NC2(O)c3ccccc3C(=O)C12O (stereo unspecified) | active: 11.2 µM | – |
| O=C(Cn1cc(C(F)(F)F)ccc1=O)N1CCN(S(=O)(=O)c2ccc(Cl)cc2)CC1 | – | inactive: -22.2% |
| Cc1cc2cc3c(cc2nc1SCC(=O)OC(C)C)OCO3 | inconclusive [inhibitor, single point] | – |
| COc1ccc(/C=C/C(=O)O)cc1S(=O)(=O)NC1CCS(=O)(=O)C1 (stereo unspecified) | – | inactive: 15.2% |
| CC(C)N(C(=S)Nc1cccc(C(F)(F)F)c1)C(C)c1ccccn1 (stereo unspecified) | – | inactive: 2.19% |
| O=C(Nc1ccc(C(=O)N2CCCC2)cc1)c1ccc2c(c1)OCO2 | inconclusive [inhibitor, single point] | – |
| CC(C)(C)n1nc2c(c1NC(=O)c1ccc(S(=O)(=O)N3CCCC3)cc1)CSC2 | inconclusive [inhibitor, single point] | – |
| COc1cc2c(cc1NC(=O)C(C)N1CCN(S(=O)(=O)c3ccc(C)c(C)c3)CC1)oc1ccccc12 (stereo unspecified) | inconclusive [inhibitor, single point] | – |
| COc1ccc2c(c1)-c1nc(/N=C/c3ccccc3O)sc1CC2 | active: 28.2 µM | – |
| COc1cccc(SCc2noc(C(=O)NC(C)C)c2C(=O)O)c1 | inconclusive [inhibitor, single point] | – |
| Cc1ccc(S(=O)(=O)/C=C/C#N)cc1 | active: 0.0562 µM | – |
| c1coc(-c2nc3c([nH]2)CCc2nonc2-3)c1 | active: 2.82 µM | – |
| c1cc2c(cc1-c1[nH]ncc1CN1C[C@H]3CC[C@H]1C3)OCO2 | inconclusive [inhibitor, single point] | – |

| SMILES | Potency | activity, negative = inhibition |
| --- | --- | --- |
| CCOC(=O)c1c(-c2ccccc2)csc1NC(=O)CSc1nc(C)cc(C)n1 | inconclusive [inhibitor, single point] | – |
| C=C1C(=O)OC2CC1C(OC(C)=O)CC(C)=CCCC(C)=CCC[C@@]2(C)O (stereo partly specified) | inconclusive [inhibitor, single point] | – |
| Cc1cccc(NC(=O)c2cc(Cl)nc3ccccc23)n1 | inconclusive [inhibitor, single point] | – |
| O=C1c2ccccc2C(=O)N1CCSc1nc2ccccc2c(=O)n1CCCN1CCOCC1 | inconclusive [inhibitor, partial curve, poor fit] | – |
| C[C@@H](Nc1nc(-c2ccccc2)nc2c1oc1ccccc12)C(=O)O | active: 7.08 µM | – |
| O=C(/C=C/c1ccc(O)cc1)c1c(O)cc(O)cc1O | – | inactive: 0.628% |
| Cc1nn(-c2ccccc2)c(C)c1/C=N/n1c(-c2ccncc2)n[nH]c1=S | active: 22.4 µM | – |
| O=C(N/N=C/c1ccccn1)c1cc(-c2ccncc2)nc2ccccc12 | – | inactive: 4.08% |
| Cc1onc(-c2ccccc2)c1CNS(=O)(=O)c1ccccc1 | inconclusive [inhibitor, partial curve] | – |
| CC(C)(O)C#Cc1ccc(CN2CCN(C3CCCC3)C(CCO)C2)cc1 (stereo unspecified) | – | inactive: -2.51% |
| CC(C)OCCCn1c(-c2ccco2)nc2nc3ccccc3nc21 | inconclusive [inhibitor, partial curve] | – |
| Fc1ccc(/C=N/n2cnn(Cc3ccccc3Cl)c2=S)cc1 | active: 20 µM | – |
| CC1Cc2ccccc2N1C(=O)CSc1nnc(NC(=O)Cc2cccs2)s1 (stereo unspecified) | – | inactive: -4.98% |
| CCCn1c(=O)c2[nH]c(-c3ccc(OCC(=O)NCCN)cc3)nc2n(CCC)c1=O | inconclusive [inhibitor, partial curve] | – |
| Nc1nc(SCC(=O)NC2CCCc3ccccc32)n[nH]1 (stereo unspecified) | – | inactive: 13.1% |
| CC(C)C(=O)NC(=S)Nc1ccccc1C(=O)NC1CCCCC1 | – | inactive: -4.85% |
| c1coc(CSCc2cn3cccnc3n2)c1 | inconclusive [inhibitor, partial curve] | – |
| O=C(CSc1ccccc1Cl)c1ccco1 | – | inactive: -4.12% |
| c1cncc(-c2csc(NCc3ccco3)n2)c1 | inconclusive [inhibitor, single point] | – |
| O=C(O)c1ccc(NC2=C(N3CCOCC3)C(=O)c3ccccc3C2=O)cc1 | active: 18.9 µM | – |
| O=C(/C=C\c1ccco1)Nc1cc([N+](=O)[O-])ccc1F | inconclusive [inhibitor, single point] | – |
| O=C1Nc2ccc(Br)cc2C1=Nc1ccc(-c2nnc3n2CCCCC3)cc1 | – | inactive: -5.12% |
| COc1ccccc1CNc1n[nH]c(NCc2ccccc2OC)n1 | – | inactive: -6.12% |
| Cc1cccc(OCCCSc2nc3ccccc3[nH]2)c1 | inconclusive [inhibitor, single point] | – |
| COc1ccc2c(c1)cc1n2CCN=C1N | inconclusive [inhibitor, single point] | – |
| Oc1ccc(-c2n[nH]c(=S)n2-c2ccc3c(c2)OCCO3)cc1 | active: 25.1 µM | – |

| SMILES | Potency | activity, negative = inhibition |
| --- | --- | --- |
| CC(C)COC(=O)c1nnsc1NC(=O)Nc1ccccc1 | – | inactive: -4.64% |
| CCc1nc(NCc2cccnc2)c2oc3ccccc3c2n1 | inconclusive [inhibitor, partial curve] | – |
| CC(C)(C)C(=O)Nc1nc2c(s1)CN(Cc1ccccc1)CC2 | active: 31.6 µM | – |
| CC(C)(C)c1ccc(S(=O)(=O)n2c(CN3CCOCC3)nc3ccccc32)cc1 | inconclusive [inhibitor, partial curve] | – |
| CC(C)(C)NS(=O)(=O)c1ccc(OCC(=O)Nc2ccc3c(c2)OCCO3)cc1 | active: 1.78 µM | – |
| O=C(CSc1nc(C2CCCCC2)n(-c2ccccc2)n1)NCC(F)(F)F | – | inactive: 0.409% |
| O=c1c(Cl)c(N2CCN(S(=O)(=O)c3ccc(F)cc3)CC2)cnn1-c1cccc(Cl)c1 | – | inactive: -6.17% |
| CCOC(=O)c1c(NC(=O)CCN2CCOCC2)sc2c1CC(C)(C)OC2 | active: 22.4 µM | – |
| COCCn1c(-c2ccc(OC)cc2)nc2oc3cc(OC)ccc3c(=O)c2c1=O | inconclusive [inhibitor, single point] | – |
| O=C(Cn1cnc([N+](=O)[O-])n1)NCCc1ccccc1 | – | inactive: -2.11% |
| Cc1cccc(Nc2nc3c(S(=O)(=O)c4ccccc4)nnn3c3ccccc23)c1C | inconclusive [inhibitor, partial curve] | – |
| COc1ccc(NC2=CC(c3cccc(OC)c3)N(c3ccc(OC)cc3)C2=O)cc1 (stereo unspecified) | active: 25.1 µM | – |
| NC(=O)C1CCN(C(=O)CSc2nc3ccccc3s2)CC1 | inconclusive [inhibitor, single point] | – |
| O=C(c1cnn2ccccc12)N(Cc1ccco1)C1CCCC1 | inconclusive [inhibitor, single point] | – |
| Cn1c(O)c(C=Nc2ccc(Br)cc2)sc1=O | – | inactive: 6.98% |
| COc1ccc(S(=O)(=O)Nc2ccc(O)c3ccccc23)cc1 | inconclusive [inhibitor, partial curve] | – |
| O=c1c2cc(Cl)ccc2[nH]c(=S)n1Cc1ccco1 | active: 11.2 µM | – |
| O=C(CCN1C(=O)C2C3C=CC(C3)C2C1=O)Nc1ccc2c(c1)OCO2 (stereo unspecified) | inconclusive [inhibitor, partial curve] | – |
| COc1cc(C)c(C(C)C)cc1S(=O)(=O)N1CCOCC1 | active: 3.16 µM | – |
| c1cncc(CNc2ncnc3ccc(-c4cccnc4)cc23)c1 | inconclusive [inhibitor, single point] | – |
| COC(=O)c1c(NC(=O)C2COc3ccccc3O2)sc2c1CCN(Cc1ccccc1)C2 (stereo unspecified) | inconclusive [inhibitor, single point] | – |
| Cn1cccc1/C=N/n1c(-c2ccco2)n[nH]c1=S | – | inactive: -7.56% |
| CCOc1ccccc1N1CCN(C(=S)NCc2ccc(Cl)cc2)CC1 | – | inactive: 4.56% |
| Cc1occc1-c1nnc(SCC(=O)NCCc2ccccc2)n1C(C)c1ccccc1 (stereo unspecified) | inconclusive [inhibitor, single point] | – |

Reference: PubChem BioAssay AID1030 (National Center for Advancing Translational Sciences (NCATS), 2008)
